# In all, about 270,000 compounds went through this assay and about 5,800 (2.1%) were called active. This list was built around the results that the source calls inconclusive (neither active nor inactive); the mix of calls is not that of the screen. The call rests on the fitted dose curve; in most records, active means well fitted inhibition curve with a large enough effect; inconclusive means small, poorly fitted or top-dose-only effect; inactive means flat fitted curve, though single readings scatter. Where the call is inconclusive, the potency comes from a doubtful curve fit. A structure can be active in one record and inactive in another.
# Biological target: Microtubule-associated protein tau (Homo sapiens) (UniProt P10636)
# Assay: qHTS for Inhibitors of Tau Fibril Formation, Thioflavin T Binding; further: nearly all actives have a fitted effect of over 55% in size
# Conditions: recombinant tau K18 P301L (four-repeat tau fragment), heparin-induced fibrillization, ThT fluorescence; series mostly up to 57.4 µM
# Procedure, shortened: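 Heparin-induced fibrillization of the P301L-mutant K18 repeat-domain fragment of human tau was followed by ThT binding in quantitative high-throughput format.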
# On the % scale 0 is the no-effect control and ±100 the full control effect; potency means the concentration at half of the fitted maximal effect; tags describe the fitted curve by direction and shape.
# UniProt P10636, sequence (P10636 whole entry, looked up): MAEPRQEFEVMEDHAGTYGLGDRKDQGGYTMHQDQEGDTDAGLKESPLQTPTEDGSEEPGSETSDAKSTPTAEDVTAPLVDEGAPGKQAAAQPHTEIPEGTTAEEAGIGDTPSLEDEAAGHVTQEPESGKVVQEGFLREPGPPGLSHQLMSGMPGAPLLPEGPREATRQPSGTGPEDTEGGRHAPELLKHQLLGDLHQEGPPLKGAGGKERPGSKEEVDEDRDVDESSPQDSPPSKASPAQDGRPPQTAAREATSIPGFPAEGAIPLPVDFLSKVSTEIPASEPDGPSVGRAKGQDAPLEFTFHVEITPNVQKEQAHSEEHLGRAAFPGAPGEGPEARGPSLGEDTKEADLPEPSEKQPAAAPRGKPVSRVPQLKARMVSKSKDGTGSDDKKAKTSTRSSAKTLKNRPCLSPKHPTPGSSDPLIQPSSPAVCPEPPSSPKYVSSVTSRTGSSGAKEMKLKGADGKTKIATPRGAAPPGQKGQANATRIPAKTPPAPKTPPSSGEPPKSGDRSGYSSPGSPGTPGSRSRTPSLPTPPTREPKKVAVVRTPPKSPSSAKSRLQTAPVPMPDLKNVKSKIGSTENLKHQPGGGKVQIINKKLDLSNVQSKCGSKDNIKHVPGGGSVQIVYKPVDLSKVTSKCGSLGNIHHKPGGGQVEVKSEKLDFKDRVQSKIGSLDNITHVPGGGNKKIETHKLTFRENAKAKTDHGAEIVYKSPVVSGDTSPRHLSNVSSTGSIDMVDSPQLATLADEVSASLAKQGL
Compound,Potency,"activity, negative = inhibition"
CC(NC(=O)c1ccc(OC2CCN(S(=O)(=O)N(C)C)CC2)cc1)C1CC1 (stereo not given),"inconclusive: 39.8 µM [inhibitor, partial curve]",–
Cc1ccc(C(=O)N/N=C\c2cccn2C)cn1,inactive,–
NC(Cc1c[nH]c2ccccc12)C(=O)O (stereo not given),"inconclusive: 22.4 µM [inhibitor, partial curve]",–
Cc1cc(-c2ccco2)c(C#N)c2nc3ccccc3n12,inactive,–
CCN(CC)CCNCc1ccc(Br)cc1OCC(=O)NCc1ccccc1,inactive,–
CCOC(=O)CNc1c(-c2ccc(O)cc2)nc2ccc(Cl)cn12,"inconclusive: 20 µM [inhibitor, partial curve]",–
COc1ccc(-n2ncc3c(N4CCN(c5cccc(C)c5)C(C)C4)ncnc32)cc1 (stereo not given),"inconclusive: 2.82 µM [inhibitor, full curve, poor fit]",–
CN(c1ccc(OCC(=O)Nc2ccc3[nH]c(=O)[nH]c3c2)cc1)S(=O)(=O)c1ccc(Cl)cc1,"inconclusive: 1 µM [inhibitor, full curve]",–
Clc1cccc(CNc2ncnc3c2nc2n3CCCC2)c1,"inconclusive: 39.8 µM [inhibitor, single point]",–
O=C(C1CCC(CNS(=O)(=O)c2ccc(Br)s2)CC1)N1CCN(c2ccccc2)CC1 (stereo not given),"inconclusive: 6.31 µM [inhibitor, partial curve]",–
CCn1c2ccccc2c2cc(NC(=O)c3cc(OC)c(OC)c(OC)c3)ccc21,"inconclusive: 3.16 µM [inhibitor, full curve]",–
Cc1cc(C(=O)Cn2nc(C(=O)O)c3ccccc3c2=O)c(C)n1CC(F)(F)F,inactive,–
CC(Oc1ccc(Br)cc1)c1nc2c3ccccc3nc(=S)n2[nH]1 (stereo not given),"inconclusive: 22.4 µM [inhibitor, single point]",–
Cc1cc(-c2csc(NC(=O)c3ccc(S(=O)(=O)N(C)C)cc3)n2)c(C)n1-c1ccccc1,"inconclusive: 7.08 µM [inhibitor, partial curve]",–
CCN(c1ccccc1)S(=O)(=O)c1nnc(NC(=O)COc2ccc(OC)cc2)s1,"inconclusive: 1.78 µM [inhibitor, full curve]",–
CC(=O)OCC#CCSc1nnc(-c2cccc(Br)c2)o1,inactive,–
Cc1cccc2c(=O)c(Br)c(C)n(Cc3ccccc3)c12,"inconclusive: 25.1 µM [inhibitor, single point]",–
COC(=O)c1c(N2C(=O)CC(Sc3ccccc3C(=O)O)C2=O)sc(C)c1C (stereo not given),inactive,–
O=C(O)/C=C/C(=O)NNc1ncnc2ccccc12,"inconclusive: 11.2 µM [inhibitor, partial curve, poor fit]",–
Cc1ccc(N2CCN(C3=NC(=O)C(Cc4ccccc4)S3)CC2)cc1 (stereo not given),"inconclusive: 7.94 µM [inhibitor, full curve]",–
Cc1ccnc(NC(=O)COc2ccc3oc4c(c3c2)CCCC4)c1,"inconclusive: 1.58 µM [inhibitor, full curve]",–
O=C(Cn1nnc(-c2ccc(CN3CCOCC3)cc2)n1)N(c1ccccc1)c1ccccc1,inactive,–

Compound,Potency,"activity, negative = inhibition"
Cc1ccc(-n2nnc3c(sc4nc(C)c(C)cc43)c2=O)cc1Cl,inactive,–
CCN(CC)C(=O)c1c(Cl)nc(C)c([N+](=O)[O-])c1C,inactive,–
Cc1ccc(C)c(NC(=O)C2CCCN(S(=O)(=O)c3c(C)noc3/C=C/N(C)C)C2)c1 (stereo not given),"inconclusive: 11.2 µM [inhibitor, partial curve]",–
COc1ccc(CSc2nc3ncccc3[nH]2)cc1,inactive,–
CCOc1ccc(N2CC(c3nc(-c4cc(OC)c(OC)c(OC)c4)no3)CC2=O)cc1 (stereo not given),inactive,–
CCCCC1=CC2=C(c3ccco3)C(=O)C(C)(OC(=O)c3ccc(OC)cc3)C(=O)C2=CN1CC1CC1 (stereo not given),active: 15.8 µM,inactive: -8.3% [at 11.5 µM]
O=c1c(Cl)cc(Cl)nn1-c1ccccc1,inactive,–
COc1ccc(O[C@H]2C=C[C@@H](c3ccccc3)O[C@H]2CO/N=C2/c3cc(OC)ccc3O[C@@H](c3cccc(OC)c3)[C@H]2O)cc1,"inconclusive: 1.58 µM [inhibitor, single point]",–
Cc1ccc(C(=O)c2oc3ccccc3c2NC(=O)c2cc(=O)c3ccccc3o2)cc1,inactive,–
O=C(CCCN1C(=O)/C(=C/c2cccs2)SC1=S)NNC(=O)c1cccnc1,"inconclusive: 14.1 µM [inhibitor, partial curve]",–
Cc1c(CCOC(=O)CC23CC4CC(CC(C)(C4)C2)C3)sc[n+]1CC(=O)c1ccccc1,"inconclusive: 12.6 µM [inhibitor, partial curve]",–
Cc1cc(C)cc(OCC(=O)Nc2ccc(N3CCCC3)cc2)c1,"inconclusive: 15.8 µM [inhibitor, partial curve]",–
O=C(Cc1coc2cc3c(cc12)CCC3)NC1CCCCCCC1,inactive,–
CCOC(=O)NC(Nc1sc2c(c1C(N)=O)CCCC2)(C(=O)OCC)C(F)(F)F (stereo not given),"inconclusive: 28.2 µM [inhibitor, partial curve]",–
Oc1cccc(C(Nc2ccccn2)c2ccc3cccnc3c2O)c1Cl (stereo not given),"inconclusive: 14.1 µM [inhibitor, partial curve]",–
COc1ccc(OC)c(-c2cc(C(=O)N3CCCc4ccccc43)no2)c1,"inconclusive: 25.1 µM [inhibitor, partial curve]",–
CCn1nc(C)cc1C(=O)Sc1cccc(Br)c1,"inconclusive: 25.1 µM [inhibitor, partial curve]",–
CCNc1ccc(N=Nc2c(C)n(C)n(-c3ccccc3)c2=O)cc1,active: 15.8 µM,–
COc1ccc(N2CCN(c3nc(Cl)nc(N4CCOCC4)n3)CC2)cc1,"inconclusive: 12.6 µM [inhibitor, partial curve]",–
COc1cccc(NC(=O)c2ccc(-c3ccccc3[N+](=O)[O-])o2)c1,"inconclusive: 2 µM [inhibitor, full curve]",–
CCS(=O)(=O)N1CCc2cc(C(=O)N3CCN(c4cccc(C(F)(F)F)c4)CC3)ccc21,inactive,–
Cc1ccc(NC(=O)C(=O)NCC(c2cccnc2)N2CCOCC2)cc1C (stereo not given),"inconclusive: 10 µM [inhibitor, partial curve]",–
